Results taken from the supplement of paper PMC5655136.
Values come from read counts of a selection and are noisy.

test system: NB7; assay: fold depletion of shRNA, plasmid library share / infected cells without Dox share (9 days) (ratio); higher = more depleted after infection (more toxic, leaky expression from a Tet-inducible vector; NB7 is a neuroblastoma line without caspase-8); conditions: shRNA pool: CD95L ORF + CD95L 3'UTR + Venus libraries
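Also: shRNA barcodes quantified by deep sequencing of PCR amplicons from cellular DNA, counts expressed as percent of each subpool, ratio averaged over two biological duplicates.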

Sequence	fold depletion of shRNA
AAAAAGCAGCTACCAGGTGTT	1.26
AGGACACCTTTTAACTCACCT	3.46
GTGGACCTTGAGACCACAGGG	0.837
ATGCCCCACTGGCAGCATCTT	4.39
ATGACGGAAGAACATAGAACT	0.59
GAGGGCGACACCCTGGTGAAC	0.491
AATCATTGATTGTCAGCTACT	2.23
CTATAATATAATAAATATTTA	0.879
CCATTTAACAGGCAAGTCCAA	0.935
TTCTTTGTTACAGGCACCGAG	8.63
AGGCTTGCATAATAAGCTAAA	2.17
CCAGGATCTGGTGATGATGGA	1.3
CCCGACAACCACTACCTGAGC	1.6
AGGGCGAGGAGCTGTTCACCG	1.41
CACTGCCTCCACTACCGCTGC	5.46
TTGCTACCTCAAGGGGGACTG	0.841
CGTATCTGAGCTCTCTCTGGT	1.27
TTTCTGGAGTGAAGTATAAGA	0.702
TGGGCTGCCATGTGAAGAGGG	1.02
TGGCCTTGTGATCAATGAAAC	1.19

Sequence	fold depletion of shRNA
CCCCAGATCTACTGGGTGGAC	5.63
AAGGGATGGAAAAGGAAGACT	0.873
AGGAGCTGTTCACCGGGGTGG	1.36
GATCTGGTGATGATGGAGGGG	0.803
CTTTCTGGAGTGAAGTATAAG	1.01
GGTCTTCTTACATGCATTTGA	1.38
CTTCTTCAAGTCCGCCATGCC	2.89
CATATCCCCAGATCTACTGGG	1.92
CGTGACCGCCGCCGGGATCAC	0.764
CACAAGGTCTACATGAGGAAC	1.11
ACAACTACAACAGCCACAACG	3.93
CCTATGGAATTGTCCTGCTTT	2.43
TCCTTGTGATGTTTTTCATGG	1.19
CTGGGCTGCCATGTGAAGAGG	2.46
GAACTCCGAGAGTCTACCAGC	3.85
ATCTTGCAACAACCTGCCCCT	1.04
ATATTCCAAAGTATACTTCCG	0.718
ACGGCAACATCCTGGGGCACA	0.992
ATCACTCTCGGCATGGACGAG	1.07
AAGGTCTACATGAGGAACTCT	1.11

Sequence	fold depletion of shRNA
ACCACTACCAGCAGAACACCC	2
GGCATCAAGGCCAACTTCAAG	1.18
TTTGAGGAATCTCAGACGTTT	2.33
AACTACAAGACCCGCGCCGAG	1.67
CAGTGCTTCGCCCGCTACCCC	1.04
CATCGGTGAAACTAACAGATA	1.86
ACTGGGTGGACAGCAGTGCCA	19.9
GTATTTCCAGTGCAATTGTAG	6.14
GCTACTGCACTACTGGGCAGA	1.35
CCGCTGCCACCCCTGAAGAAG	0.0689
CCCCGACCACATGAAGCAGCA	2.5
GGAGTGAAGTATAAGAAGGGT	0.827
AGTCCGCCCTGAGCAAAGACC	1.71
ACTGTCTTTCAGATACATGGT	1.86
GCGCGATCACATGGTCCTGCT	1.22
ATGTTTATGAGCCAGACAAAT	2.21
CGACACCCTGGTGAACCGCAT	1.9
TCACCGGGGTGGTGCCCATCC	2.66
GAGAGTATTTAGGCAGATTGA	2.56

same assay, conditions: shRNA pool: CD95 ORF + CD95 3'UTR + Venus libraries

Sequence	fold depletion of shRNA
GTTCAATAATGTCCCATGTAA	1.04
ATAACTCTGAGAAGATCATAT	0.971
ATGGGGATGAACCAGACTGCG	0.249
AAGTATATGTATTTGAGTGCA	1.53
GAGGGCGACACCCTGGTGAAC	1.05
TCTCAGAGAAAGTAGCTTTGT	1.42
CAAATAGGAGTGTATGCAGAG	2.02
CGCTACCCCGACCACATGAAG	1.07
TAACCCCACTCTATGAATCAA	1.41
TAGTATGAATGTAATCAGTGT	2.14
